# In patent US20140271458A1 (AbbVie / Abbott, published 2014):
# T1: Recombinant Human IL-17 (human, UniProt Q16552 20-155, limits assumed)
# T1 sequence (looked up): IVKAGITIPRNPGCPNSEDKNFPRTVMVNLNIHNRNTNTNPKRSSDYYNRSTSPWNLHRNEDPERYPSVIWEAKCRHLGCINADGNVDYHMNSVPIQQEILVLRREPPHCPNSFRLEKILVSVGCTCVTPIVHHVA
# Tests used:
# [1] = molecular target: Recombinant Human IL-1b (human, UniProt P01584 117-269); experiment: cell-based or functional assay
# [2] = molecular target: T1, Recombinant Human IL-17; experiment: cell-based or functional assay
# UniProt P01584, sequence (P01584 117-269 limits assumed): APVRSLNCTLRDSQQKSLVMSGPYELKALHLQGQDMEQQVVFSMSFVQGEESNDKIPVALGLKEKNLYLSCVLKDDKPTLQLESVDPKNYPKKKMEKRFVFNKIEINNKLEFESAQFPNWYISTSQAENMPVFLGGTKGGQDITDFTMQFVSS
Binder,N-Terminal VD IL-1β Neutralization Assay (IC50 nM) [1],C-Terminal VD IL17 Neutralization Assay (IC50 nM) [2]
"DVD2427 (bispecific antibody, human IgG1) heavy: EVQLVESGGGVVQPGRSLRLSCSASGFIFSRYDMSWVRQAPGKGLEWVAYISHGGAGTYYPDSVKGRFTISRDNSKNTLFLQMDSLRAEDTAVYYCARGGVYKGYFDVWGQGTPVTVSSASTKGPEVQLVQSGAEVKKPGSSVKVSCKASGGSFGGYGIGWVRQAPGQGLEWMGGITPFFGFADYAQKFQGRVTITADESTTTAYMELSGLTSDDTAVYYCARDPNEFWGGYYSTHDFDSWGQGTTVTVSS[human IgG1 constant region left out] light: DIQMTQSPSSLSASVGDRVTITCRASGNIHNYLTWYQQTPGKAPKLLIYNAKTLADGVPSRFSGSGSGTDYTFTISSLQPEDIATYYCQHFWSIPYTFGQGTKLQITRTVAAPEIVLTQSPDFQSVTPKEKVTITCRASQDIGSELHWYQQKPDQPPKLLIKYASHSTSGVPSRFSGSGSGTDFTLTINGLEAEDAGTYYCHQTDSLPYTFGPGTKVDIKRTVAAPSVFIFPPSDEQLKSGTASVVCLLNNFYPREAKVQWKVDNALQSGNSQESVTEQDSKDSTYSLSSTLTLSKADYEKHKVYACEVTHQGLSSPVTKSFNRGEC",0.0003 nM,0.771 nM
"DVD2428 (bispecific antibody, human IgG1) heavy: EVQLVESGGGVVQPGRSLRLSCSASGFIFSRYDMSWVRQAPGKGLEWVAYISHGGAGTYYPDSVKGRFTISRDNSKNTLFLQMDSLRAEDTAVYYCARGGVYKGYFDVWGQGTPVTVSSASTKGPEVQLVQSGAEVKKPGSSVKVSCKASGGSFGGYGIGWVRQAPGQGLEWMGGITPFFGFADYAQKFQGRVTITADESTTTAYMELSGLTSDDTAVYYCARDPNEFWGGYYSTHDFDSWGQGTTVTVSS[human IgG1 constant region left out] light: DIQMTQSPSSLSASVGDRVTITCRASGNIHNYLTWYQQTPGKAPKLLIYNAKTLADGVPSRFSGSGSGTDYTFTISSLQPEDIATYYCQHFWSIPYTFGQGTKLQITRTVAAPSVFIFPPEIVLTQSPDFQSVTPKEKVTITCRASQDIGSELHWYQQKPDQPPKLLIKYASHSTSGVPSRFSGSGSGTDFTLTINGLEAEDAGTYYCHQTDSLPYTFGPGTKVDIKRTVAAPSVFIFPPSDEQLKSGTASVVCLLNNFYPREAKVQWKVDNALQSGNSQESVTEQDSKDSTYSLSSTLTLSKADYEKHKVYACEVTHQGLSSPVTKSFNRGEC",0.0007 nM,0.065 nM
"DVD2429 (bispecific antibody, human IgG1) heavy: EVQLVESGGGVVQPGRSLRLSCSASGFIFSRYDMSWVRQAPGKGLEWVAYISHGGAGTYYPDSVKGRFTISRDNSKNTLFLQMDSLRAEDTAVYYCARGGVYKGYFDVWGQGTPVTVSSASTKGPSVFPLAPEVQLVQSGAEVKKPGSSVKVSCKASGGSFGGYGIGWVRQAPGQGLEWMGGITPFFGFADYAQKFQGRVTITADESTTTAYMELSGLTSDDTAVYYCARDPNEFWGGYYSTHDFDSWGQGTTVTVSS[human IgG1 constant region left out] light: DIQMTQSPSSLSASVGDRVTITCRASGNIHNYLTWYQQTPGKAPKLLIYNAKTLADGVPSRFSGSGSGTDYTFTISSLQPEDIATYYCQHFWSIPYTFGQGTKLQITRTVAAPEIVLTQSPDFQSVTPKEKVTITCRASQDIGSELHWYQQKPDQPPKLLIKYASHSTSGVPSRFSGSGSGTDFTLTINGLEAEDAGTYYCHQTDSLPYTFGPGTKVDIKRTVAAPSVFIFPPSDEQLKSGTASVVCLLNNFYPREAKVQWKVDNALQSGNSQESVTEQDSKDSTYSLSSTLTLSKADYEKHKVYACEVTHQGLSSPVTKSFNRGEC",0.0009 nM,0.305 nM
"DVD2423 (bispecific antibody, human IgG1) heavy: EVQLVESGGGVVQPGRSLRLSCSASGFIFSRYDMSWVRQAPGKGLEWVAYISHGGAGTYYPDSVKGRFTISRDNSKNTLFLQMDSLRPEDTGVYFCARGGVTKGYFDVWGQGTPVTVSSASTKGPEVQLVQSGAEVKKPGSSVKVSCKASGGSFGGYGIGWVRQAPGQGLEWMGGITPFFGFADYAQKFQGRVTITADESTTTAYMELSGLTSDDTAVYYCARDPNEFWGGYYSTHDFDSWGQGTTVTVSS[human IgG1 constant region left out] light: DIQMTQSPSSLSASVGDRVTITCRASGNIHNYLTWYQQTPGKAPKLLIYNAKTLADGVPSRFSGSGSGTDYTFTISSLQPEDIATYYCQHFWSIPYTFGQGTKLQITRTVAAPEIVLTQSPDFQSVTPKEKVTITCRASQDIGSELHWYQQKPDQPPKLLIKYASHSTSGVPSRFSGSGSGTDFTLTINGLEAEDAGTYYCHQTDSLPYTFGPGTKVDIKRTVAAPSVFIFPPSDEQLKSGTASVVCLLNNFYPREAKVQWKVDNALQSGNSQESVTEQDSKDSTYSLSSTLTLSKADYEKHKVYACEVTHQGLSSPVTKSFNRGEC",,1.09 nM
"DVD2424 (bispecific antibody, human IgG1) heavy: EVQLVESGGGVVQPGRSLRLSCSASGFIFSRYDMSWVRQAPGKGLEWVAYISHGGAGTYYPDSVKGRFTISRDNSKNTLFLQMDSLRPEDTGVYFCARGGVTKGYFDVWGQGTPVTVSSASTKGPEVQLVQSGAEVKKPGSSVKVSCKASGGSFGGYGIGWVRQAPGQGLEWMGGITPFFGFADYAQKFQGRVTITADESTTTAYMELSGLTSDDTAVYYCARDPNEFWGGYYSTHDFDSWGQGTTVTVSS[human IgG1 constant region left out] light: DIQMTQSPSSLSASVGDRVTITCRASGNIHNYLTWYQQTPGKAPKLLIYNAKTLADGVPSRFSGSGSGTDYTFTISSLQPEDIATYYCQHFWSIPYTFGQGTKLQITRTVAAPSVFIFPPEIVLTQSPDFQSVTPKEKVTITCRASQDIGSELHWYQQKPDQPPKLLIKYASHSTSGVPSRFSGSGSGTDFTLTINGLEAEDAGTYYCHQTDSLPYTFGPGTKVDIKRTVAAPSVFIFPPSDEQLKSGTASVVCLLNNFYPREAKVQWKVDNALQSGNSQESVTEQDSKDSTYSLSSTLTLSKADYEKHKVYACEVTHQGLSSPVTKSFNRGEC",,0.077 nM
"DVD2430 (bispecific antibody, human IgG1) heavy: EVQLVESGGGVVQPGRSLRLSCSASGFIFSRYDMSWVRQAPGKGLEWVAYISHGGAGTYYPDSVKGRFTISRDNSKNTLFLQMDSLRAEDTAVYYCARGGVYKGYFDVWGQGTPVTVSSASTKGPSVFPLAPEVQLVQSGAEVKKPGSSVKVSCKASGGSFGGYGIGWVRQAPGQGLEWMGGITPFFGFADYAQKFQGRVTITADESTTTAYMELSGLTSDDTAVYYCARDPNEFWGGYYSTHDFDSWGQGTTVTVSS[human IgG1 constant region left out] light: DIQMTQSPSSLSASVGDRVTITCRASGNIHNYLTWYQQTPGKAPKLLIYNAKTLADGVPSRFSGSGSGTDYTFTISSLQPEDIATYYCQHFWSIPYTFGQGTKLQITRTVAAPSVFIFPPEIVLTQSPDFQSVTPKEKVTITCRASQDIGSELHWYQQKPDQPPKLLIKYASHSTSGVPSRFSGSGSGTDFTLTINGLEAEDAGTYYCHQTDSLPYTFGPGTKVDIKRTVAAPSVFIFPPSDEQLKSGTASVVCLLNNFYPREAKVQWKVDNALQSGNSQESVTEQDSKDSTYSLSSTLTLSKADYEKHKVYACEVTHQGLSSPVTKSFNRGEC",,0.058 nM
